The source of these data is patent US20040258668A1 (priority 2001, published 2004).

In the test the test system is LLC-MK2 cells infected with SeV18+SEAP/ΔF-GFP. In words: GFP expression and cell damage by fluorescence microscopy. As to conditions: four and six days after aspirin addition, 0.625-5 mM. The protocol:
GFP expression level and cell damage were also periodically observed using fluorescence microscopy.
Fluorescence microscopy pictures taken four and six days after aspirin addition (six and eight days after SeV infection, respectively) are shown in FIG. 3. […] The effect of adding 5 mM aspirin was significant.

Take `CC(=O)Oc1ccccc1C(=O)O` [aspirin, acetylsalicylic acid]: the “GFP expression and cell damage” value is “concentration-dependent decreases in GFP expression and in cell damage”.
